This is an account of results in paper PMC4336329 (PLoS ONE, 2015).

In all, about 310,000 compounds went through this assay and about 2,200 (0.71%) showed an effect of 50% or more. The effect is printed as a negative number. Some of the results follow.

Sequence of human ether-à-go-go-related gene (hERG) potassium channel (Q12809 whole entry, looked up): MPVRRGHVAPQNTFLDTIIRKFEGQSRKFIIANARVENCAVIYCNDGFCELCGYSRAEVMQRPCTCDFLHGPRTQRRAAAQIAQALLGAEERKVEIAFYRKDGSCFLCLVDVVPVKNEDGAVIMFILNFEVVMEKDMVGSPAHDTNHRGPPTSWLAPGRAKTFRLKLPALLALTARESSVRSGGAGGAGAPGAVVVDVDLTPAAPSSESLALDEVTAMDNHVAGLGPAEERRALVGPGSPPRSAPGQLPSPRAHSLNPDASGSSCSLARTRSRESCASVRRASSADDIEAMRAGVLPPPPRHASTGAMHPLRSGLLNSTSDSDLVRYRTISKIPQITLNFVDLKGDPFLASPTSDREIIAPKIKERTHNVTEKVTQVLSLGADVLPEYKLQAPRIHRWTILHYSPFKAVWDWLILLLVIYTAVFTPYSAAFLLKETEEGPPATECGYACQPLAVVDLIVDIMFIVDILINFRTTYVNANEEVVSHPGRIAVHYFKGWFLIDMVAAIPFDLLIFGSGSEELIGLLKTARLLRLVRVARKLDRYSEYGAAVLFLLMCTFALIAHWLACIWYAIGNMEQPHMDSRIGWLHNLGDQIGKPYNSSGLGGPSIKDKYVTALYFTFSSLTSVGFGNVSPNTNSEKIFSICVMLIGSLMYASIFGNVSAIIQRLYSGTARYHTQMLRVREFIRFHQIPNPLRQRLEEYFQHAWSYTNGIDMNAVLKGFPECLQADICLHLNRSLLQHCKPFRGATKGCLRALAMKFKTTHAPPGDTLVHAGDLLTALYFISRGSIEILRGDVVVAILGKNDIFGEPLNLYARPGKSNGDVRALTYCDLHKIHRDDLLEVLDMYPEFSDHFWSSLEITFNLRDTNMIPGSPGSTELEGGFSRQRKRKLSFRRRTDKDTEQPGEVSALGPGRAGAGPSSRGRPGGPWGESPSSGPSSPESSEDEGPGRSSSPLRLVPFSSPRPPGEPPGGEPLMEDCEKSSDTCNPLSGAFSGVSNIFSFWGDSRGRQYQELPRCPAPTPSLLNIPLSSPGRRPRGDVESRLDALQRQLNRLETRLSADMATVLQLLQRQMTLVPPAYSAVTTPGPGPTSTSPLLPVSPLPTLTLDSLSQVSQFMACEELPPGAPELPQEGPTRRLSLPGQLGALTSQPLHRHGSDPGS

This assay addresses human ether-à-go-go-related gene (hERG) potassium channel (human, UniProt Q12809). In words: primary screen, population patch clamp on CHO cells stably expressing hERG.
For the molecule `COc1ccc(CCNC(=O)C2CCCN(S(=O)(=O)c3ccccc3)C2)cc1` (stereo not shown), the “hERG current change (%, negative = inhibition) at 1uM” value is listed as 5.33%.
In the case of `CCc1ccc(NC(=O)c2noc3c2CCCCC3)cc1`, the “hERG current change (%, negative = inhibition) at 1uM” value is 12.2%.
In the case of `O=C(O)C(=O)O.O=C(c1ccccc1F)N1CCN(Cc2ccc3c(c2)OCO3)CC1` it was 13%; in that of `CCN1CNC(=S)N(c2ccccc2C)C1`, 13.9%.
As to `O=C1C(Cl)=C(Nc2ccc(O)cc2)C(=O)c2ccccc21`, the “hERG current change (%, negative = inhibition) at 1uM” value was determined as 15.1%.
Then `CC(=O)Nc1nonc1NC(=O)CSc1ccccn1`, with 8.05%; and `Cc1ccc(Cn2cc(/C=N/Nc3ccc([N+](=O)[O-])cn3)c3ccccc32)cc1`, with 0.803%; and `CN(c1cccc(Cl)c1)S(=O)(=O)c1cccc(C(=O)Nc2nc3ccccc3[nH]2)c1`, with 6.67%.
In the case of `CCn1nnc(NC(=O)COc2cc(C)ccc2C(C)C)n1` it was 2.62%.
Consider `Cc1ccc(CNC(=O)c2cc3cc(Br)ccc3oc2=N)cc1`, for which the “hERG current change (%, negative = inhibition) at 1uM” value is given as 8.2%.
`Cc1ccc(NC(=S)N(CCCN2CCCC2)Cc2cccn2Cc2ccc(Cl)cc2)cc1`: the “hERG current change (%, negative = inhibition) at 1uM” value was 7.04%.
In the case of `COc1ccc(OC)c(S(=O)(=O)NC2CCCCC2)c1` it was -6.21%.
Then `CCCOC1CCCN(C(=O)CCc2nnc(Cc3cccc(C)c3)o2)C1` (stereo not shown), with 15.5%; and `OCc1ncccc1O`, with 8.62%; and `COc1cccc(/C=C2\Oc3cc(OCC(=O)N4CCC[C@H]4C(=O)O)ccc3C2=O)c1`, with 3.77%.
Then `COc1ccccc1C/C(N)=N/OC(=O)c1cccc([N+](=O)[O-])c1`, with 4.26%; and `CCCCc1nnc(NC(=O)c2ccc3[nH]c(=O)c(=O)[nH]c3c2)s1`, with -4.08%; and `CC(C)NC(=O)C(=O)NCCN1CCN(C(=O)c2ccc(C(C)(C)C)cc2)CC1`, with 5.85%.
As to `Cc1cccc(S(=O)(=O)NCC2CCCO2)c1` (stereo not shown), the “hERG current change (%, negative = inhibition) at 1uM” value amounted to 8.2%.
Take `CCCCCn1nc(C(=O)N(CCOC)c2c(N)n(CCCC)c(=O)[nH]c2=O)c2ccccc2c1=O`: the “hERG current change (%, negative = inhibition) at 1uM” value is listed as 1.15%.
Then `Cc1cccc(-c2noc(CCC(=O)NCc3ccccc3)n2)c1`, with 3.69%; and `O=C(NNC(=O)C1CC1)c1cc(Cl)nc2ccccc12`, with 10.7%.
Regarding `O=C(NCc1ccccc1)C1CCC(=O)N(CCCN2CCCC2=O)C1` (stereo not shown), the “hERG current change (%, negative = inhibition) at 1uM” value was found to be 11.5%.
Then `CN1CCN(Cc2cn[nH]c2-c2ccc(F)cc2F)[C@@H](c2ccccc2)C1`, with 3.92%; and `CCOC(=O)CNS(=O)(=O)c1ccc(C(=O)O)cc1`, with 8.84%.
